PMC4336329 (PLoS ONE, 2015)
About 2,200 (0.71%) of roughly 310,000 compounds showed an effect of 50% or more. The effect is printed as a negative number. The list shows a part of the results.

biological target: human ether-à-go-go-related gene (hERG) potassium channel (human, UniProt Q12809); assay: primary screen, population patch clamp on CHO cells stably expressing hERG
Sequence (Q12809 whole entry, looked up): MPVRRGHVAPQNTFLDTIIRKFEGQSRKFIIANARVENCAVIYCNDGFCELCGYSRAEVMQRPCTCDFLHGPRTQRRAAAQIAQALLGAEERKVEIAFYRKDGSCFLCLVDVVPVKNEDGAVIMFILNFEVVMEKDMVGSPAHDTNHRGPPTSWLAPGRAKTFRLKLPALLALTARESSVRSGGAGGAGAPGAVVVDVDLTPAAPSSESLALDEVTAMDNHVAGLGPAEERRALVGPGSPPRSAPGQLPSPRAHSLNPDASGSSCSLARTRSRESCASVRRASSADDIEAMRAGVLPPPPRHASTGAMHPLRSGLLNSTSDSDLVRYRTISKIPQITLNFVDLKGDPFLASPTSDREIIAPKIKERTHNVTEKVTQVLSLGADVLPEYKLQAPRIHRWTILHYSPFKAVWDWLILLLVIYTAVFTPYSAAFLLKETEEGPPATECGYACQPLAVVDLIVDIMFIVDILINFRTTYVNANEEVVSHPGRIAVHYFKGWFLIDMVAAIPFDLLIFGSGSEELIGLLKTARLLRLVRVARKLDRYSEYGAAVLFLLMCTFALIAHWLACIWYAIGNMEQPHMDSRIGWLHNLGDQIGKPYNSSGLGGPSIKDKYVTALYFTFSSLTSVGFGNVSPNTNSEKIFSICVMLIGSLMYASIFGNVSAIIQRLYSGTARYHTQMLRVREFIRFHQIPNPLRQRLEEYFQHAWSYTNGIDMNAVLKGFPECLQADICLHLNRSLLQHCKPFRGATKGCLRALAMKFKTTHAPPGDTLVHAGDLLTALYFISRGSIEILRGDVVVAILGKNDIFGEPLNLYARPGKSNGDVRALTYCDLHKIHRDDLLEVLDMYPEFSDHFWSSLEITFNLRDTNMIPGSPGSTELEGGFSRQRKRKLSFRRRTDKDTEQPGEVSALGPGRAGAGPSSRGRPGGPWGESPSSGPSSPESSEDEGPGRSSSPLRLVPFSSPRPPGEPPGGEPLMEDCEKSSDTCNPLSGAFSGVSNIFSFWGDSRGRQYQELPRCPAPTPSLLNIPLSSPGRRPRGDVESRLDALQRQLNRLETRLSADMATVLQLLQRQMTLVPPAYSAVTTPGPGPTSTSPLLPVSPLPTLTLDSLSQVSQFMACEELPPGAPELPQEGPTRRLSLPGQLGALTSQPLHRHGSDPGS

Compound	hERG current change (%, negative = inhibition) at 1uM
CC1(C)C(C=C(Cl)Cl)C1C(=O)N(Cc1cccc(Cl)c1)C1CCS(=O)(=O)C1 (centres unmarked)	9.09%
COCc1cc(C)nc(SCC(=O)N2CCC(C)CC2)c1C#N	12.3%
N#C/C(=C\c1ccc(Cl)cc1)C(=O)NC1CC1	5.51%
Cc1cccc(N2C(=N)SCC2=O)c1C	8.9%
Cc1cccc(C(=O)NNC(=O)CSc2nnc(C(C)C)n2C)c1	6.45%
COc1ccc(NC(=S)NCCc2ccccc2)c(C)c1	13.8%
COc1cccc(-c2nc(-c3ccccn3)no2)c1OC	6.56%
CCOc1ccccc1/C=N/Nc1nc2c(N)ncnc2n1[C@H]1O[C@@H](CO)[C@H](O)[C@@H]1O	-3.68%
O=C(NCc1ccc(F)c(F)c1)C1CCC(=O)N(CC2CCCCC2)C1 (centres unmarked)	2.21%
O=C(Cc1ccc([N+](=O)[O-])cc1)N1CCN=C1SCc1ccccc1	7.11%
CC(C)N1CCN(Cc2cnc(-c3ccccc3)s2)CC1CCO (centres unmarked)	3.87%
CCOc1cc(N2CCOCC2)c(OCC)cc1NC(=O)C1CC(=O)N(c2ccccc2OCC)C1 (centres unmarked)	-1.87%
O=C(CN1C(=O)C2(OCCO2)c2ccccc21)c1ccc(Br)cc1	-5.17%
CC(=O)c1c(N2CCOCC2)nc(=O)n(-c2ccccc2)c1C	12.6%
Cc1cccc(N(C)S(=O)(=O)c2c(C)noc2C)c1	4.02%
CS(=O)(=O)N1CCC(C(=O)N2CCN(Cc3ccccc3)CC2)CC1	17.9%
CCC(=O)Nc1c(C(=O)Nc2ccc3c(c2)OCCO3)oc2ccccc12	12.3%
CC1=C(C)CC(C(=O)Nc2cccc([N+](=O)[O-])c2)C(C(=O)O)C1 (centres unmarked)	0.871%
O=c1c(Cl)c(N2CCN(S(=O)(=O)c3ccc(F)cc3)CC2)cnn1-c1cccc(Cl)c1	1.66%

Compound	hERG current change (%, negative = inhibition) at 1uM
COC(=O)CN1C(=O)S/C(=C/c2cc(C)n(C)c2C)C1=O	-3.31%
CN1C(=O)N(C)C(=O)C2(Cc3cc(NC(=O)c4ccccc4)ccc3N3CCCC32)C1=O (centres unmarked)	23.3%
CC(=O)c1cccc(NC(=O)CC2S/C(=N/N=C/c3cccs3)NC2=O)c1 (centres unmarked)	-3.57%
O=c1[nH]c(=O)n(C2C[C@H](O)[C@@H](CO)O2)cc1C(F)(F)F (some centres unmarked)	14.8%
CCc1cccc(CC)c1NC(=O)CO/N=C(\C)c1cccs1	3.17%
COc1cc(/C=C2\SC(=S)N(C(C(=O)O)c3ccccc3)C2=O)cc(OC)c1OC (centres unmarked)	16.5%
COC(=O)C1=C(O)C2(C(=O)O)CC(C(=O)OC)=C(O)C(C(=O)O)(C1)C2	12.4%
CC1CC1C(=O)OCC(=O)c1c(N)n(C)c(=O)n(C)c1=O (centres unmarked)	2.67%
Cn1cc2ccc([N+](=O)[O-])cc2n1	3.32%
CCOC(=O)C1=C(COC(=O)[C@H](C)NS(=O)(=O)c2ccccc2F)NC(=O)NC1C (some centres unmarked)	17.1%
Cc1c(C(=O)NCC2CCCO2)cccc1[N+](=O)[O-] (centres unmarked)	13.2%
Cc1ccc(-c2nnc(SCC(=O)NNC(=O)COc3cccc(C)c3)n2C)cc1	5.22%
CC12CCC(=O)N1C(C(=O)NNC(=O)c1ccc(F)cc1)CS2 (centres unmarked)	22%
N#CCSc1ncccc1-c1nc2ccccc2[nH]1	12.2%
Cc1oc(-c2ccccc2Cl)[n+]([O-])c1C.Cl	5.12%
Cc1nnc(SCC(=O)NC(C)c2ccccc2)[nH]c1=O (centres unmarked)	8.14%
COC(=O)c1ccc(N=Cc2c(C(F)(F)F)[nH]n(C)c2=O)cc1	5.16%
Cc1c(NP(=O)(C(C)(C)C)C(C)(C)C)c(=O)n(-c2ccccc2)n1C	17.8%
Cc1cc2c(C)nc(N/N=C/c3ccccc3)nc2o1	9.09%

Compound	hERG current change (%, negative = inhibition) at 1uM
CCOC(=O)c1ccc(S(=O)(=O)N2CCC(C(=O)OCC)CC2)cc1	-1.07%
CCc1ccc2nc(N=C(N)N)nc(C)c2c1	10.6%
O=C1[C@@H]2[C@@H]3C[C@@H]([C@H]4ON=C(c5ccc(OCc6ccccc6)cc5)[C@@H]34)[C@@H]2C(=O)N1c1ccc2c(c1)OCO2	9.21%
CCCN(CC(=O)Nc1ccc(F)c(F)c1F)C(=O)c1ccc(=O)n(Cc2ccccc2)n1	-1.8%
CCCCC(=O)Nc1cc(NC(=O)CCCC)cc(C(=O)O)c1	16.3%
O=C(c1ccco1)N1CCN(C(=O)c2cn(-c3ccccc3)nc2-c2ccccc2)CC1	-37%
COc1ccccc1N(CC(=O)NCc1ccc2c(c1)OCO2)C(=O)CCC(=O)Nc1nccs1	14%
O=C(CNC(=O)c1ccc2c(c1)OCO2)Nc1ncccc1O	1.22%
CCCCn1c(N)c(N(CCOC)C(=O)c2ccco2)c(=O)[nH]c1=O	6.62%
CCOc1ccc(Br)cc1S(=O)(=O)NCCN1CCCC1.Cl	11.3%
CCOc1ccc(S(=O)(=O)Nc2cccc(C(=O)NCC3CCCO3)c2)cc1 (centres unmarked)	13.5%
COC(=O)c1ccccc1NC(=O)CCn1c(=O)oc2ccccc21	8.15%
O=C(CN(C(=O)CNC(=O)c1cccs1)c1cccc(F)c1)NC1CCCC1	-1.64%
COc1ccc(CN(C(=O)c2oc3ccc(F)cc3c2C)C2CCS(=O)(=O)C2)cc1 (centres unmarked)	7.32%
COc1ccccc1CC(=O)c1ccc(OCc2ccccc2)cc1	12%
COc1ccc(/C=C/c2cc(C(F)(F)F)[nH]c(=O)n2)cc1OC	5.56%
CCCc1c(C(=O)N/N=C/c2ccc(OC)c(OCc3ccccc3)c2)nnn1-c1nonc1N	8.55%
O=C(c1ccccc1Cl)N1CCC(c2nc3c(nnn3Cc3ccco3)c(=O)[nH]2)CC1	12.1%
